Measurements taken from PubChem BioAssay AID1434 (Sanford-Burnham Center for Chemical Genomics, 2008).
Some of the results follow. These are further read-outs of the screen, such as a control signal, another cell line or another target. No call is given for them. Most of these compounds were active or inconclusive in the main read-out, so they are no random draw.

molecular target: Runt-related transcription factor 1 (Homo sapiens) + Core-binding factor subunit beta (Homo sapiens) (UniProt Q01196+Q13951); test: inhibitors of RUNX1 Runt–CBFb-SMMHC binding, primary screen, biochemical, FRET, Cerulean-Runt, Venus-CBFb-SMMHC, uHTS (AID 1434); details: Cerulean-Runt/Venus-CBFb-SMMHC FRET ratio 530/480, 1 h; retest duplicate average; at 20 µM; stronger effect = higher value;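 also: 0% = DMSO wells and 100% = wells with excess untagged CBFb-SMMHC; inhibitors lower the FRET ratio by blocking Runt binding to CBFb-SMMHC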
UniProt Q01196, sequence (Q01196 whole entry, looked up): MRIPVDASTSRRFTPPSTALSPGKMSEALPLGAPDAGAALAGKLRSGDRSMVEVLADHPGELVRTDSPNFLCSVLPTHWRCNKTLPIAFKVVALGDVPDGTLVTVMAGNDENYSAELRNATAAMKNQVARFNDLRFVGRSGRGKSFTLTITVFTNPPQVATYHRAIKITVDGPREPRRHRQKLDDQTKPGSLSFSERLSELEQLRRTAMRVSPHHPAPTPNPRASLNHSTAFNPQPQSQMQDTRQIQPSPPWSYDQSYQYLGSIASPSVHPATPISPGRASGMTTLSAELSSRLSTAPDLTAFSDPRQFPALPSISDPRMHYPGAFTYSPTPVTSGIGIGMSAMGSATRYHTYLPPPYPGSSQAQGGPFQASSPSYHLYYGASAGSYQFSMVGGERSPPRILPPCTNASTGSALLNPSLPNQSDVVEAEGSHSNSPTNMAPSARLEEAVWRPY
UniProt Q01196, sequence (Q13951 whole entry, looked up): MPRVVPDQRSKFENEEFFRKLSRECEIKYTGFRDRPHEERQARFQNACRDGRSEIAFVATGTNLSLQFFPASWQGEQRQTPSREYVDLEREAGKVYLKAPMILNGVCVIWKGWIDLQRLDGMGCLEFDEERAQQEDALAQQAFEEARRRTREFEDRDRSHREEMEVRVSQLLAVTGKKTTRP

| Compound | inhibition |
| --- | --- |
| CCNc1nc(C)c(CN(C(C)=O)c2ccccc2)nc1C#N | 84.5% |
| Cc1cc(NCc2ccco2)nc2cc(O)ccc12 | 84.9% |
| O=C(O)c1cc2ccc3ccccc3c2oc1=O | 74.3% |
| Cc1cc(O)c(Oc2cc(C)cc(O)c2O)c(O)c1 | 60.2% |
| Cc1ccc2c(n1)sc1c(-c3ccccc3)c(C#N)c(N)nc12 | 127% |
| COC(=O)C1=CN(C(C)C)C=C(C(=O)OC)C1c1cc2c(cc1Br)OCO2 | 110% |
| CCn1c(/C=C/c2c(C)[nH]c3ccccc23)nc2ccccc2c1=O | 71.5% |
| Nc1c(Cl)ncnc1N/N=C/c1ccccn1 | 71.5% |
| Cc1cc2c(c(=O)n1C)C(Cc1ccccc1)C(C#N)=C(N)O2 (stereo unspecified) | 177% |
| CNC(=O)c1cc2c(=O)n3cccc(C)c3nc2n(C(C)C)c1=N | 72.9% |
| C=CCn1c(=O)c(C#N)cc2c(=O)n3ccccc3nc21 | 72.9% |
| Cc1cccn2c(=O)c3cc(C#N)c(=NC(=O)c4cccs4)n(CC(C)C)c3nc12 | 70.6% |
| CN1c2ccc(Cl)cc2C(=O)NC1C1CC=CCC1 (stereo unspecified) | 101% |
| O=C(O)COc1ccc2c(c1)O/C(=C\c1cccs1)C2=O | 53.9% |
| Cc1cccc2cc(C#N)c(NCCNS(=O)(=O)c3ccccc3)nc12 | 90.1% |
| COc1ccc2nc3cc(Cl)ccc3c(Nc3cc(C(C)C)c(O)cc3C)c2c1 | 76.9% |
| O=C1Nc2ccccc2C12Nc1ccccc1S2 (stereo unspecified) | 54.4% |
| CCOC(=O)c1c(/N=C/c2ccc(O)cc2O)sc2c1CCC2 | 54.9% |
| CSc1ccc(C2NC(=O)c3c(sc4c3CCN(C)C4)N2)cc1 (stereo unspecified) | 152% |
| CCNc1nc2nc3ccc(C)cn3c(=O)c2cc1C(=O)NCC1CCCO1 (stereo unspecified) | 70.6% |
| CCCCc1cc(=O)oc2cc(O)ccc12 | 104% |
| Oc1ccc(-c2cnns2)c(O)c1 | 57.5% |
| Cc1ccc2nc3c(cc2c1)c(NC(=O)c1ccco1)nn3CC(C)C | 80% |
| N#Cc1c(NCCN)nc(NCc2ccccc2)c2c1CCN(Cc1ccccc1)C2 | 72.9% |

| Compound | inhibition |
| --- | --- |
| CC(=O)c1ccc(-c2cccs2)s1 | 173% |
| COc1ccc2cc(C(=O)NCc3ccco3)c(=O)oc2c1 | 84.2% |
| C=CCNC(=O)/C(C#N)=C/c1c(N2CC(C)OC(C)C2)nc2ccccn2c1=O (stereo unspecified) | 71.5% |
| CCNC(=O)c1cc2c(=O)n3cccc(C)c3nc2n(CCc2ccccc2)c1=N | 71.5% |
| Cn1c(=O)nc2n(Cc3ccccc3)c3ccccc3cc-2c1=O | 71.5% |
| CCOc1ccc2nc(NCCCNS(=O)(=O)c3ccc(C)cc3)c(C#N)cc2c1 | 63.1% |
| COCCCn1c(=N)c(C(=O)NC2CCCCC2)cc2c(=O)n3ccccc3nc21 | 71.5% |
| C=CCn1c(NC(=O)c2ccccc2Cl)c(C#N)c2nc3ccccc3nc21 | 72.7% |
| Cc1cc(O)ccc1Nc1nc2ccccc2nc1Nc1ccc(O)cc1C | 59.4% |
| CCCCNC(=O)C(C#N)c1nc2ccccc2nc1N1CCCC1 (stereo unspecified) | 85.4% |
| N#Cc1c(-c2cccnc2)c2c([nH]c1=O)-c1ccccc1OC2 | 70.6% |
| CCOC(=O)c1cc(C)[nH]c(=O)c1C#N | 58.6% |
| CCCCc1cc(=O)oc2c(CN(C)C)c(O)ccc12 | 115% |
| COc1ccc(C2CC(c3cccs3)=NN2c2ccc(C=O)cc2)cc1 (stereo unspecified) | 71.5% |
| CCOC(=O)c1c(NC(=S)Nc2ccc(OCC)cc2)sc2c1CCN(C)C2 | 147% |
| Cc1cc(C)cc(-n2c3nc4ccccc4nc3c3c(=O)n(Cc4ccco4)cnc32)c1 | 47.1% |
| COCCCNC(=O)c1c(N)n(-c2cccc(S(N)(=O)=O)c2)c2nc3ccccc3nc12 | 71.5% |
| O=C(Nc1ccc(-c2nc3ccccc3s2)c(O)c1)C1=COCCO1 | 73.2% |
| Nc1ccc(-c2nc3ccc(C(=O)O)cc3s2)cc1 | 85.6% |
| COc1ccc(C2C3=C(CC(C)(C)CC3=O)Nc3c2c(=O)[nH]c(=O)n3Cc2ccccc2)cc1OC (stereo unspecified) | 72.6% |
| O=S(=O)(Nc1ccc(-c2nc3cccnc3s2)cc1)c1cc(F)ccc1F | 93.5% |
| Cc1cccc(C(=O)N=c2c(C#N)cc3c(=O)n4cccc(C)c4nc3n2Cc2ccco2)c1 | 72.9% |
| O=C(Cc1cc(=O)oc2cc(O)ccc12)NCC1CCC(C(=O)O)CC1 (stereo unspecified) | 120% |
| CCOC(=O)c1c(/N=C/N(C)C)sc(/C=N/Nc2ccccc2)c1-c1ccc(Cl)cc1 | 159% |

| Compound | inhibition |
| --- | --- |
| Cc1ccc(S(=O)(=O)c2cc3c(=O)n4ccccc4nc3n(C)c2=N)cc1 | 71.5% |
| O=c1oc2c3c4c(cc2c2c1CCC2)OCCN4CCC3 | 141% |
| CN1/C(=C/C(=O)c2cccs2)Sc2ccccc21 | 106% |
| C=CCNc1nc(N2CCOCC2)c(C#N)c2c1CN(C)CC2 | 50.6% |
| COc1ccc(CNC(=O)c2c(N)n(CCCN3CCOCC3)c3nc4ccccc4nc23)cc1 | 116% |
| CCOC(=O)c1cc2c(=O)n3ccccc3nc2n(Cc2ccco2)c1=NC(=O)c1ccccc1OCC | 70.6% |
| Cc1cccn2c(=O)c(/C=C(\C#N)C(=O)NCc3ccco3)c(N3CCCC(C)C3)nc12 (stereo unspecified) | 173% |
| CCN(CC)c1ccc2cc(-c3nc4ccccc4n3C)c(=O)oc2c1 | 72.9% |
| N#Cc1cc2cc3c(cc2nc1N1CCOCC1)OCO3 | 164% |
| CCOC(=O)c1sc(Nc2nc3c(OC)cccc3s2)cc1C | 111% |
| Oc1ccc(-c2csc(-c3ccccc3)n2)cc1O | 59.1% |
| CN1Cc2sc(N)c(C#N)c2CC1(C)C | 74% |
| CCN(CC)c1nc2ccccc2nc1C(C#N)C(=O)NCCCOC (stereo unspecified) | 74.9% |
| CCOC(=O)c1cc2c(=O)n3ccccc3nc2n(CCCOC)c1=NC(=O)c1ccncc1 | 70.6% |
| CCCCCNc1nc(NCCCO)c(C#N)c2c1CN(C)CC2 | 72.9% |
| CC(=O)Nc1ccc2c3c(cccc13)C(=O)N(c1ccccc1)C2=O | 70.6% |
| c1ccc2c(NCCCN3CCOCC3)c3ccccc3nc2c1 | 134% |
| CCN(CC)c1ccc(/C=N/NC(=O)c2cccc(S(=O)(=O)N3CCOCC3)c2)c(O)c1 | 70.6% |
| O=C(NCc1ccco1)c1cnn2c(C(F)(F)F)cc(-c3cccs3)nc12 | 56.4% |
| Cc1ccc(N2C(=O)C(Cl)=C(N3CCOCC3)C2=O)cc1Cl | 50.5% |
| Cc1ccc(C)c(-n2c3nc(=O)n(C)c(=O)c-3cc3ccccc32)c1 | 70.6% |
| Cc1ccc2nc(N3CCN(C=O)CC3)nc(-c3ccccc3)c2c1 | 71.5% |
| N#Cc1c(-c2ccccc2)c(C#N)c2nc3ccccc3n2c1N | 112% |
